Reference: the RNAGym collection of RNA variant scans (doi:10.7554/elife.90254)
The source gives no read counts; variants with many changes may rest on few reads.

B1: LINE1-full (parent)
chain: UACGUAGGUGGUUUUCCCCUGAUAGUGCUAAGGGGGCCUGGAAGUUUGGACUGGGCAGAGCUCAACACAGCGUGGCAAAGUGGCUGUGGCUAGACUGCCUCUCUGGAUUCCUCGUCACUCAGCAGGGCAUCUCUGAGAGAAAUGCC

Variants of: B1
Test: self-cleavage, relative activity (ratio to wild type); higher = more cleavage; in vitro, sequencing; the parent is a self-cleaving ribozyme

| Variant | self-cleavage |
| --- | --- |
| U13A U20A C116A A140G | 0.53 |
| U13A U20C U45C U102C A141G | 1.43 |
| U13A U20G U45C U87C U130C | 0.57 |
| U13A U23A U26A A140G | 1.84 |
| U13A U23C C28U A140G | 0.96 |
| U13A U26A A121G | 1.01 |
| U13A U29A A67G | 0.43 |
| U13A U45C A77G U102C | 1.23 |
| U13A U45C G75A | 0.77 |
| U13A U45C U109C | 1.62 |
| U13A U45C U143C | 0.43 |
| U13A U47C A69U A77U U96A U132A A141G | 0.01 |
| U13A U52A A78U A141G C146U | 1.7 |
| U13A U52C A65U U119C | 0.19 |
| U13A U52C A129G | 1.45 |
| U13A U52C U62A U91C | 0 |
| U13A U73C A79G A138G | 1.53 |
| U13A U73C A141G | 1.15 |
| U13A U73G A107C U132C U143A | 2.04 |
| U13A U81A A129G | 2.19 |
| U13A U81C U102A | 1.89 |
| U13A U85C A140G | 0.2 |
| U13A U102A A141G | 0.54 |
| U13A U134A A140U | 1.44 |

| Variant | self-cleavage |
| --- | --- |
| U13C A22G G27C A140C | 0.23 |
| U13C A22G U23C | 0.92 |
| U13C A22G U45C A124G | 1.2 |
| U13C A22G U62A G74A | 0.08 |
| U13C A22U A59G G114U | 0.12 |
| U13C A22U U29C U87A U109C U112C A136G A140G | 0 |
| U13C A24G A50U U115A | 0.52 |
| U13C A24G A64U A141G | 0.71 |
| U13C A24G A69G A92U | 0.22 |
| U13C A24G A79G U134C | 0.95 |
| U13C A30G A59G A78G U104C | 0 |
| U13C A30G U45A G75U U134A | 0.22 |
| U13C A30G U96G | 0 |
| U13C A30G U100C | 1.13 |
| U13C A30G U108C U143C | 1.88 |
| U13C A31G A65C C120U | 0.1 |
| U13C A31G A79G A92G A141G | 0.33 |
| U13C A31G G36A U46C U85A A117G A129U | 0.26 |
| U13C A31G U108C | 1.45 |
| U13C A31U A77G U104A A129U C145U | 1.73 |
| U13C A31U U73C | 0.27 |
| U13C A42G A57G A64C | 0 |
| U13C A42G A65G U130C A136G U143C | 0 |
| U13C A42G A69U U109A | 0.04 |

| Variant | self-cleavage |
| --- | --- |
| U13C A42G C66U A77G | 0.12 |
| U13C A42G U46C | 2.03 |
| U13C A42U A77C | 1.01 |
| U13C A42U C71G A79G | 0.07 |
| U13C A42U U47C U102C C128U A136G | 1.16 |
| U13C A43C A129C | 0 |
| U13C A43G A65G A69U U104C A141G | 0 |
| U13C A43G U134C | 0.61 |
| U13C A43U A64U A94C | 0.04 |
| U13C A50C A65G G70A A138U A140G | 0 |
| U13C A50C G82A | 1.6 |
| U13C A50G A57U C113U A142G | 0.12 |
| U13C A50G A136U A140G | 1.24 |
| U13C A50G C120U | 1.41 |
| U13C A50G U73A | 0.84 |
| U13C A50G U85C A136U | 0.19 |
| U13C A50G U100C U132C | 0 |
| U13C A50G U119C A129G | 1.72 |
| U13C A50U A92G U132C G135U | 0 |
| U13C A50U G54A A79U U100A C145G | 0.11 |
| U13C A50U U62C U96C U119A A138G | 0 |
| U13C A57G A59G | 0.12 |
| U13C A57G C63U A67G | 0.27 |
| U13C A57G G86A U132C | 0 |

| Variant | self-cleavage |
| --- | --- |
| U13C A57G U62C A92G | 0 |
| U13C A57G U115C | 0.78 |
| U13C A57U A59G A121G C128A U143C | 0.17 |
| U13C A57U A94U A138U | 0.18 |
| U13C A57U U96C A117U A138G | 0.04 |
| U13C A59G A65G U109C | 0 |
| U13C A59G A67U C71U C113U A141G | 0.03 |
| U13C A59G A121G A136G | 0.26 |
| U13C A59G C118U | 0.19 |
| U13C A59G U62C | 0.41 |
| U13C A59G U102C | 0 |
| U13C A59U C61G A77U | 0.03 |
| U13C A64G A65G | 0.18 |
| U13C A64G A107G | 0 |
| U13C A64G U108C A129U A142G | 0.47 |
| U13C A65C A94U | 0.05 |
| U13C A65G A124G U134A | 0.1 |
| U13C A65G G72U A77U | 0.07 |
| U13C A65G U73C | 0 |
| U13C A65G U119C | 0.12 |
| U13C A67G A78G | 0.26 |
| U13C A67G A142G U143A | 0.9 |
| U13C A67G G114A | 0.62 |
| U13C A67G U134A C146U | 0.65 |

| Variant | self-cleavage |
| --- | --- |
| U13C A67U A69G | 0.07 |
| U13C A67U A77U A138G | 0.12 |
| U13C A69G A117G | 0 |
| U13C A69G U73A | 0.08 |
| U13C A69G U91C | 0 |
| U13C A69G U119C | 0.32 |
| U13C A77G A78U A79U | 1.87 |
| U13C A77G U81A | 2.81 |
| U13C A77G U85C A142G | 0.25 |
| U13C A77G U109C | 0.54 |
| U13C A77U A129G | 0.7 |
| U13C A77U U108C C113U U115C A138G | 0 |
| U13C A78G C116U U132C | 1.62 |
| U13C A78G U81G A121G | 0.37 |
| U13C A78G U100C | 0.98 |
| U13C A79G U104C | 1.53 |
| U13C A92G C103U | 0.35 |
| U13C A92G U96A A117G G127A | 0.32 |
| U13C A92G U96C | 0 |
| U13C A94G A142G | 0 |
| U13C A94G U119C | 0.57 |
| U13C A107G U130C | 2.6 |
| U13C A117G A124U | 2.19 |
| U13C A138G A141G | 1.28 |

| Variant | self-cleavage |
| --- | --- |
| U13C C16A A64G | 0 |
| U13C C16U A64U A79C C116U | 0.34 |
| U13C C17U U20A U100C | 0 |
| U13C C17U U62C | 0.03 |
| U13C C18A U108C A141G | 2.09 |
| U13C C19U A57U U62C A64G G89A A92G G105U | 0 |
| U13C C19U A59G G72A | 0.24 |
| U13C C19U G88A U109C | 0.05 |
| U13C C19U U104A G114A | 1.35 |
| U13C C19U U112C A117G | 1.17 |
| U13C C28A A42G U81C | 1.11 |
| U13C C28A A42U A79G U81A | 0.84 |
| U13C C28U C66U A121G A142G G144A | 0.07 |
| U13C C28U U85A U134C | 0.03 |
| U13C C37A U39A A117U A121G | 1.2 |
| U13C C37U U52G C99G | 0.24 |
| U13C C38A A94U A124G | 0.28 |
| U13C C38U G49U U91C U112C | 0.22 |
| U13C C38U U104A A136G | 1.14 |
| U13C C51U A129G | 1.19 |
| U13C C51U U91A U112C A138G | 0.64 |
| U13C C63A A64G A79G | 0.03 |
| U13C C68U U130A | 0.15 |
| U13C C71U A79G G125A | 0.53 |

| Variant | self-cleavage |
| --- | --- |
| U13C C71U G126A A136G | 0.99 |
| U13C C71U U87C | 0.05 |
| U13C C116U A124G | 0.48 |
| U13C G21A G34C U47C A142G | 0.77 |
| U13C G25A A77G | 0.74 |
| U13C G25A A79G | 1.16 |
| U13C G27A C38U | 0.74 |
| U13C G27A U62C | 0.03 |
| U13C G32A A50G | 1.21 |
| U13C G33A A67G U134C | 0.35 |
| U13C G33A U81A | 1.4 |
| U13C G34A C90A | 0.05 |
| U13C G34A U52C G83A A117G | 0.51 |
| U13C G34A U62C A136U A140U | 0 |
| U13C G34A U119A | 1.81 |
| U13C G34U A107G | 0.84 |
| U13C G35A A124G | 1.03 |
| U13C G36C A136G | 1.39 |
| U13C G36C A141G | 1.33 |
| U13C G36U A79G | 0.66 |
| U13C G40A A92G A107G A141G | 0.05 |
| U13C G41U A94U | 0.15 |
| U13C G48A A142G | 1.13 |
